Experimental findings from the RNAGym collection of RNA variant scans (doi:10.1093/nar/gkz1192) are described below.

First the molecules themselves.
B1: CPEB3 Ribozyme (parent)
chain: UAACAGGGGGCCACAGCAGAAGCGUUCACGUCGCAGCCCCUGUCAGAUUCUGGUGAAUCUGCGAAUUCUGCUGUAUAUCUC

Read counts are not given, so values of variants with three or more changes are uncertain.

The variants in this data set derive from B1. Description: self-cleavage, relative activity (ratio to wild type); higher = more cleavage; in vitro, sequencing. In short, it runs like this: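 Barcoded CPEB3 ribozyme mutants, produced by rounds of error-prone PCR, self-cleaved while being transcribed with T7 RNA polymerase for 5 hours at 37°C and during a subsequent 15 min DNase I step before EDTA was added. Sequencing of template-switched cDNA on Illumina gave cleaved and total reads, and DNA sequencing assigned barcodes to variants. Each variant's relative activity is its cleaved/total read fraction divided by the unmutated ribozyme's fraction, averaged across three batches. A variant needed a minimum of 5 reads.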
In the case of UAACAGGGGGCCACAGCUGAAGCGGUCACGUCGCAGCACCUGUCAGAUUCUGGUGAAUCUGCGAACUCUGCUGAAUAUCUC [A18U U25G C38A U66C U74A], the self-cleavage was 0.05.

With UAACAGGGGGCCACAGCUGAAGCGUCCGCGUCGCAGCCCCUGUCAGACUCUGGUGAAUCUGCGAAUUCUGCUGUAUAUCUC [A18U U26C A28G U48C], the self-cleavage worked out at 0.21.

With UAACAGGGGGCCACAGCUGAAGCGUUCACGUCGCAGCCCCUGUCAGAUUCUGGUGAAUCCGCGAAUCCUGCUGUAUACCUC [A18U U60C U67C U78C], the self-cleavage stood at 0.06.

Turning to UAACAGGGGGCCACAGCUGAAGCGUACACGUCGCAGCCCCUGUCGGAUUCUGGUGAAUCUGCGAUUUCUGCCGUAUAUCUC [A18U U26A A45G A65U U72C], the self-cleavage came out at 0.31.

As for UAACAGGGGGCCACAGCUGAAGCGUUCACGUCGCAGCCCCCGUCAGAUUCUGGUGAAUCUGCGAAUUCUGCUGUAUGUCUC [A18U U41C A77G], the self-cleavage was 0.42.

For the variant UAACAGGGGGCCACAGCUGAAGCGCUCACGUCGCAGCCCCCGUUGGAUUCUGGUGAAUCUGCGAAUUCCGCUGUAUAUCUC [A18U U25C U41C C44U A45G U69C], the self-cleavage was found to be 0.14.

With UAACAGGGGGCCACAGCUGAAGCGUUCACGCCGCAGCCCCCGUCAGAUUCUGGUGAAUCUGCGUAUACUGCUGUUUAUCUC [A18U U31C U41C A64U U67A A75U], the self-cleavage turned out to be 0.12.

UAACAGGGGGCCACAGCUGAAGCGCUCACGUCGCAGCCCCUGUCAGAUUCUGGCGAAUCUGCGUAUUCUGCCGUACAUCUC [A18U U25C U54C A64U U72C U76C]: the self-cleavage is 0.09.

For UAACAGGGGGCCACAGCUGAAGCGAUCACGUCGCAGCCCCUGUCAGAUUCCGGUGAAUCUGCGUAUUCUGCUGUAUAUCUC [A18U U25A U51C A64U], the self-cleavage came to 0.14.

On to UAACAGGGGGCCACAGCUGAAGCGUUCACGCCGCAGCCCCAGUCAGAUUCUGGUGAAUCUGCGAAUUCUGCUGUAUAUCUC [A18U U31C U41A], for which the self-cleavage was 0.17.

Consider UAACAGGGGGCCACAGCUGAAGCGUUCACGGCGCAGCCCCAGUCAGAUUCUGGUGAAUCUGCGAAUUCUGCUGUAUAUCUC [A18U U31G U41A], for which the self-cleavage came out at 0.07.

For UAACAGGGGGCCACAGCUGAAGCGUCCACGUCGCAGCCCCUGUCAGAUUCUGGUGAAUCUGCGAAUUCUGCCGUAUAUCUC [A18U U26C U72C], the self-cleavage turned out to be 0.46.

Consider UAACAGGGGGCCACAGCUGAAGCGUUCACGCCGCAGCCCCUGUCAGAUUCUGGUGAAUCUGCGAAUACUGCUGUAUAUCUC [A18U U31C U67A], for which the self-cleavage came to 0.18.

In the case of UAACAGGGGGCCACAGCUGAAGCGUUCACGUCGCAGCCCCUGUCAGAUUCUAGUGAAUCUGCGAAUUCAGCUGUAUAUCUC [A18U G52A U69A], the self-cleavage came out at 1.19.

As for UAACAGGGGGCCACAGCUGAAGCGUUCACGUCGCAGCCCCCGCCAGGUUCUGGUGAAUCUGUGAGUUCUGCUGUAUAUCCC [A18U U41C U43C A47G C62U A65G U80C], the self-cleavage was 0.1.

UAACAGGGGGCCACAGCUGAAGCGUACACGUCGCAGCCCCUGUCAGAUUCUGGUGAAUCUACGAAUUCUGCUGUAUACCUC [A18U U26A G61A U78C]: the self-cleavage amounted to 0.15.

Turning to UAACAGGGGGCCACAGCUGAAGCGAUCACGUCGCAGCCCCUGUCAGGCUCUGGUGGAUCUGCGAGUUCAGCUGUAUAUCUC [A18U U25A A47G U48C A56G A65G U69A], the self-cleavage is 0.06.

Take UAACAGGGGGCCACAGCUGAAGCGUUCACGUCGCAGCCCCUGUCAGAUUCUGGUGAACCUGCGAAUUCUGCCGUAUAUCUC [A18U U58C U72C]: the self-cleavage was found to be 0.23.

Take UAACAGGGGGCCACAGCUGAAGCGUACACGUCGCAGCCCCUGUCAGAUUCCGGUGAAACUGCGAAUUCUGCUGUAUAUCUC [A18U U26A U51C U58A]: the self-cleavage is 0.12.

As to UAACAGGGGGCCACAGCUGAAGCGUCCACGUCGCAGCCCCUGUCUGAUCCUGGUGAAUCUGCGAAUUCCGCUGUAUAUCUC [A18U U26C A45U U49C U69C], the self-cleavage is 0.15.

Regarding UAACAGGGGGCCACAGCUGAAGCGUUCACGUCGCAGCCCCUGUCAGAUCCUGGUGAAUCUGCGAGUUCUGCUGUAUAUCUC [A18U U49C A65G], the self-cleavage came out at 0.18.

Take UAACAGGGGGCCACAGCUGAAGCGUUCACGUCGCAGCCCCUGUCAGAUACUGGUGUAUCUGCGAAUUCUGCCGUAUAUCUC [A18U U49A A56U U72C]: the self-cleavage came to 0.24.

In the case of UAACAGGGGGCCACAGCUGAAGCGUUCACGUCGCAGCCCCUGCCAGAUUCCGGUGAAUCUGCGUAUUCUGCUGUAUAUCUC [A18U U43C U51C A64U], the self-cleavage stood at 0.13.

With UAACAGGGGGCCACAGCUGAAGCGUCCACGUCGCAGCCCCUGUCAGAUUCUGGUGAAUCUGCGAAUUCUGCUGCAUAUCUC [A18U U26C U74C], the self-cleavage was determined as 0.44.

Consider UAACAGGGGGCCACAGCUGAAGCGUUCACGACGCAGCCCCUGUCAGAUUCUGGUGAAUCUGCGAAUUCUGGUGUAUAUCUC [A18U U31A C71G], for which the self-cleavage was 0.11.

On to UAACAGGGGGCCACAGCUGAAGCGCUCACGUCGCAGCCCCUGUCAGAUUCUGGUGAAUCUGCGGAUUCUGCCGUGUAUCCC [A18U U25C A64G U72C A75G U80C], for which the self-cleavage came out at 0.03.

Turning to UAACAGGGGGCCACAGCUGAAGCGUUCACGUCGCAGCCCCUGUCAGAUUCUGGUAAAUCUGCGAAUUCUGCUGUAUAACUC [A18U G55A U78A], the self-cleavage was 0.25.

For UAACAGGGGGCCACAGCUGAAGCGUCCACAUUGCAGCCCCUGUCAGAUUCUGGUGAGUCUGCGAAUUCUGCUGUAUAUCUC [A18U U26C G30A C32U A57G], the self-cleavage amounted to 0.06.

On to UAACAGGGGGCCACAGCUGAAGCGUUCACGUCGCAUCCCCUAUCAGAUUCUGGUGAAUCCGCGAAUUCUGCUGUAUAUCUC [A18U G36U G42A U60C], for which the self-cleavage turned out to be 0.06.

Consider UAACAGGGGGCCACAGCUGAAGCGUUCACGUCGCAGCCCCUAUCAGACUCUGGUGAAUCUGCGGAUCCUGCUGUAUAUCUC [A18U G42A U48C A64G U67C], for which the self-cleavage was 0.31.

Regarding UAACAGGGGGCCACAGCUGAAGCGCUCACGUCGCGGCCCCUGUCGGAUUCUGGUGAGUCUGCGAAUUCUGCUGUAUAUCUC [A18U U25C A35G A45G A57G], the self-cleavage amounted to 0.04.

For the variant UAACAGGGGGCCACAGCUGAAGCGUUCACGUCGCAGCCCCUGUCAGAUUCUGGUGAACCUGCGAAUUCAGCUGUAUAUCUC [A18U U58C U69A], the self-cleavage amounted to 0.47.

UAACAGGGGGCCACAGCUGAAGCGUUCACGUCGCAGCCCCUGUCAGAUUCUGGUGAAUCUGCGAACUCAGCUGUAUACCUC [A18U U66C U69A U78C]: the self-cleavage was 0.25.

For the variant UAACAGGGGGCCACAGCUGAAGCGUUCACGCCGCAGCCCCUGUCGGAUUCUGGUGAAUCCGCGAAUUCUGCAAUAUAUCUC [A18U U31C A45G U60C U72A G73A], the self-cleavage was 0.18.
